Source: the RNAGym collection of RNA variant scans (doi:10.7554/elife.90254)
Read counts are not given, so values of variants with three or more changes are uncertain.

B1: LINE1-full (parent)
chain: UACGUAGGUGGUUUUCCCCUGAUAGUGCUAAGGGGGCCUGGAAGUUUGGACUGGGCAGAGCUCAACACAGCGUGGCAAAGUGGCUGUGGCUAGACUGCCUCUCUGGAUUCCUCGUCACUCAGCAGGGCAUCUCUGAGAGAAAUGCC

Variants of: B1
Assay: self-cleavage, relative activity (ratio to wild type); higher = more cleavage; in vitro, sequencing; the parent is a self-cleaving ribozyme

Variant | self-cleavage
U46C A107U A138G | 1.11
U46C U109A U130C | 0.54
U45G U46A U62C | 0.1
U47C U104C A136U | 1.67
G49U A59G A77U | 0.02
U46G U81A U85C | 0.1
U47G A77G U96G | 0.32
U47A U62A A117G | 0.05
U46A A79U U85C U108C | 0.12
U47A U62A A94G | 0
U46A C68U G114A | 0.1
U46A G49U A142G | 1.14
U46C C61A U100C U115C U132C | 0.06
U46C A64G A107U | 0.34
U47A A79G A117G | 0.51
U45C U100C A107G | 1.93
U47C A57G U112C | 0
U47A A57U A79G U109C | 0.08
U46C U81A U100C | 2.85
U46A U52C A57U G86U U96A | 0.02
U46C A79G U91C | 0.5
U46A U85A U96C A107G | 0.12
U45G U52G U100C | 1.93
U47A C113U U115C | 1.04

Variant | self-cleavage
U47C A59G A79G | 0.4
U47C A77U A141G | 1.91
U46C A50G C90A | 0.06
U47A G54A C68U U85C U108C A142G | 0.1
U45C U112A U119C | 0
G48C U62G A77G | 0.26
U45G G49C U104A | 1.71
U47A A57G A77U | 0.57
U47C U130C G144A | 2.01
U47A G70A U130C | 0.16
U47C U52C G54U U108C | 1.48
U46C A117G C131U | 1.23
U46C U91C A124G U132C | 0
U47C A78U U104A A129G | 2.09
U46C G114A A117U U130C | 2.08
U47C U73C C111A U132C | 1.77
U47A A67G A69G | 0
G49U A64U U134A | 0.17
U46A U96C A136G | 0.07
G49A A59G U102C U115C | 0.07
U47A C68A U85C U132C | 0.04
U46C A94G U102A A141G | 0.13
U46C G72U U109C A117U U119A | 1.05
U47A A57G U62C U100A A140G | 0

Variant | self-cleavage
U46C G86A U87G U96A A136G | 0.09
U46C A77U A78G U104C | 0
U46C A79G U81C | 0.64
U46A C123A U143A | 1.3
U47A A50G A59G A78U A121U | 0.19
U46C U87A U108C | 0.12
U46C U96C U143C | 0.11
A50G A57G A69G U81A U132C | 0
U47G G93U U112A A138U | 0.02
U46A U96A G122A A141G | 0.05
U47A U52A G135A | 1.19
G48U U87A A107G | 0.04
U46C A92G U108C C116A A121G | 0
U46A C111U U119A A140G | 1.32
U46C C123U A140G | 1.46
U46C A79G U87A C95U U96A | 0.07
U46C U115C U134C | 1.59
G48A U52A U115C | 0.88
U46C A107C A121U | 2.21
U47G U62C U102C | 0.06
U46C G72A A94G | 0.39
U47C G60C A69G A77U U130C | 0.09
U47C A129G A136U | 1.49
A50G A59U A142G | 0.89

Variant | self-cleavage
G49A U102C U115C | 0.28
U45C U100C A117U | 2.52
U47C A57G A78U G125A A141G | 2.21
A50C U81C A138G | 1.53
U47A U109A U112C | 1.41
U46C G70U A79G U100C A129G | 0.09
G48C A69U U143A | 0.11
G49U A59G U115C A140G | 0.07
U47A U62C U119G U143A | 0.15
U46C A117C A138U A142G | 2.9
U46C C66U A94G | 0.03
U47A U85A U87A C98U A138G | 0.03
U46C U52A A78G U100C A121G | 2.04
U46C U73A G114A A124G | 1.59
U46C G53U A64U A129G | 0.68
U45G A78G A94G | 0.19
U47C U85C U109A | 0.7
U47A G58U C63U A140G | 0.05
U47C A129U A141G | 1.69
U47C A67G C84G | 0.03
U47A U102C U109A U112C | 1.45
G48A U96C U143C | 0.08
U47C U62C A64U U73A | 0.03
U47A A57G A136G | 1.1

Variant | self-cleavage
U47A A57G A136U | 1.13
U46A U108A U115C U143A | 1.21
U45C U100C A129G A140U | 0.42
G48A U132C U143C | 0
U46C U85A A142U | 0.15
U46C A67G U85A U119A | 0
U46C U62C U134C | 0.05
U46C G54A U134A A142G | 0.32
U46C A57U U132C | 0.2
U47C A77G U134C | 1.92
U46A U119A U130C A142G | 1.83
U47G A69G C76U | 0.53
U47A U134C A141G | 1.87
U47A A64G U85A A136U | 0.16
U47C G55U U73C G114A U143A | 0.86
U47C A64G A77G A94U | 0
U46A A50U U87A | 0.03
U46A A64U A92G | 0.2
U46A C99A U109C U143A | 0.14
U46C C131U A141G | 0.97
U47C U52C G89C | 0.08
U46C A57G U73A A78C U130C A141U A142G | 1.02
G49U C66U U87C | 0.01
U47C A69G A121U | 1.53

Variant | self-cleavage
A50C C68A U81A A124U U130G | 0
U46C A78G U109C | 1.7
U46C A79U U130C | 1.15
U46C A64U U112C A142G | 0.66
U46A G55C U62C A65U A69G | 0
U47C U73A U134A A141G U143A | 2.25
U47C U85C C113U | 0.09
U46C C71U U96A A142G | 0.03
A50G A59U U96A U100A C111U | 0.03
U46A G114A A121G | 2.3
U47C A69U U96A U108C U130C | 0
U46C A69U A78G U85C | 0.09
U46C A77U G88A U132G A138G | 0
U46G C71U U115C U130C | 2.19
U47A A50G U52A G105A | 0.83
U46C A57U A67U U108C | 0
U45G U62C A77U | 0.02
G49A G53A A59C U87C U102C | 0
U46C A50U A107G | 0.79
U45G C76U U108A | 1.91
U46A A57G A78G U104C | 2.03
U47C U100C A136U | 0
U46C U96A A138G | 0.06
U47C A77G C99A | 1.24

Variant | self-cleavage
U46C A121G A141G | 2.22
U46C U62C U130C U132C | 0
U47C A67U U73C | 0
U47G A65U A136G | 0
U46C U104G A142G | 0.25
G49A A57G A129G | 0.38
U47A U100C U119G A142G | 2.17
U46C U108C A136G | 1.25
U45G A67G U91C | 0
U45C U130C U143C | 0.97
U47C A77U U109C A140G A142G | 0.55
U46C U52A U104C | 1.61
U46C A59G C61U U96A | 0.04
U46C U81A A107G | 2.35
U47C C111U A141G A142G | 1.16
U46C U85A U115C U132G | 0.1
U47A A64U U130C | 0.31
U46A A65C A77G | 0
U46C A78G C128U | 0.37
U46C A65G U85A U115C A141C A142G | 0
U46A U73G A79C | 0.42
U46C U47C C84A U87A | 0.16
U45C U130C A138G | 0.8
